From a collection of fitness landscapes (doi:10.1016/j.celrep.2020.107928)
In all, about 81,000 sequences were measured (“one-hybrid fitness for binding NBS DNA”: median about -0.1, highest 2% from about 0.36 on). The list shows a part of the results.

B1: Caulobacter ParB omega fusion; a variant is named by its letters at X, in order, B8GW30 (parent)
chain: MESVVVGEPGMSEGRRGLGRGLSALLGEVDAAPAQAPGEQLGGSREAPIEILQRNPDQPRRTFREEDLEDLSNSIREKGVLQPILVRPSPDTAGEYQIVAGERAWRAAQRAGLKTVPIMVRELDDLAVLEIGIIENVQRADLNVLEEALSYKVLMEKFERTQENIAQTIGKSXSHVANXMRLLXLPDEVQSYLVSGELTAXHARAIAAAADPVALAKQIIEGGLSVRETEALARKAPNLSAGKSKGGRPPRVKDTDTQALESDLSSVLGLDVSIDHRGSTGTLTITYATLEQLDDLCNRLTRGI

Variants of: B1
Experiment: one-hybrid fitness for binding NBS DNA (the Noc-binding site; scaled: cognate 1, non-cognate 0); higher = stronger binding
Details: with NBS DNA site
Procedure, shortened: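 On M9-minus-histidine containing 0.1 mM IPTG and 5 mM 3-AT, E. coli USO cells with a HIS3 reporter, site 19 bp from the promoter, grew 48 hours at 37°C to select Caulobacter ParB libraries randomised at four specificity codons. Plasmids from before and after were Illumina-sequenced, with three replicate libraries pooled and variants under 10 reads left out. Fitness is the log change in variant-to-wild-type read ratio, rescaled against cognate and non-cognate.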

KDAD and AFAS cannot be ordered by “one-hybrid fitness for binding NBS DNA” value: no more than 0.2 for the first, no more than 0.2 for the second.

SMNL and LWYS cannot be ordered by “one-hybrid fitness for binding NBS DNA” value: no more than 0.2 for the first, no more than 0.2 for the second.

SPHG and LGVR cannot be ordered by “one-hybrid fitness for binding NBS DNA” value: no more than 0.2 for the first, no more than 0.2 for the second.

MAYI and KPVA cannot be ordered by “one-hybrid fitness for binding NBS DNA” value: no more than 0.2 for the first, no more than 0.2 for the second.

EQPT and FFIG cannot be ordered by “one-hybrid fitness for binding NBS DNA” value: no more than 0.2 for the first, no more than 0.2 for the second.

TILC and GPVN cannot be ordered by “one-hybrid fitness for binding NBS DNA” value: no more than 0.2 for the first, no more than 0.2 for the second.

RVCG and STNY cannot be ordered by “one-hybrid fitness for binding NBS DNA” value: no more than 0.2 for the first, no more than 0.2 for the second.

CKKR and AAVT cannot be ordered by “one-hybrid fitness for binding NBS DNA” value: no more than 0.2 for the first, no more than 0.2 for the second.

RIFW and ERAA cannot be ordered by “one-hybrid fitness for binding NBS DNA” value: no more than 0.2 for the first, no more than 0.2 for the second.

HWRV and HKLS cannot be ordered by “one-hybrid fitness for binding NBS DNA” value: no more than 0.2 for the first, no more than 0.2 for the second.

PNIC and REGC cannot be ordered by “one-hybrid fitness for binding NBS DNA” value: no more than 0.2 for the first, no more than 0.2 for the second.

Compared with RSHW, RYMT is higher in “one-hybrid fitness for binding NBS DNA” value: no more than 0.2 for the first, 0.364 for the second.

EIRR and EFTC cannot be ordered by “one-hybrid fitness for binding NBS DNA” value: no more than 0.2 for the first, no more than 0.2 for the second.

DNDK and SRGN cannot be ordered by “one-hybrid fitness for binding NBS DNA” value: no more than 0.2 for the first, no more than 0.2 for the second.

LWVD and ASCD cannot be ordered by “one-hybrid fitness for binding NBS DNA” value: no more than 0.2 for the first, no more than 0.2 for the second.

LNMQ and AAAT cannot be ordered by “one-hybrid fitness for binding NBS DNA” value: no more than 0.2 for the first, no more than 0.2 for the second.

QQFF and YAQS cannot be ordered by “one-hybrid fitness for binding NBS DNA” value: no more than 0.2 for the first, no more than 0.2 for the second.

First: ADAM
Second: RIQT
The “one-hybrid fitness for binding NBS DNA” value of the first is lower: no more than 0.2 for the first, 0.329 for the second.

ANMN and ATCG cannot be ordered by “one-hybrid fitness for binding NBS DNA” value: no more than 0.2 for the first, no more than 0.2 for the second.

STPE and ARKV cannot be ordered by “one-hybrid fitness for binding NBS DNA” value: no more than 0.2 for the first, no more than 0.2 for the second.

RDVR and VCTD cannot be ordered by “one-hybrid fitness for binding NBS DNA” value: no more than 0.2 for the first, no more than 0.2 for the second.

ATLE and DNEF cannot be ordered by “one-hybrid fitness for binding NBS DNA” value: no more than 0.2 for the first, no more than 0.2 for the second.

IIHS and KSYN cannot be ordered by “one-hybrid fitness for binding NBS DNA” value: no more than 0.2 for the first, no more than 0.2 for the second.

GPVQ and YNHY cannot be ordered by “one-hybrid fitness for binding NBS DNA” value: no more than 0.2 for the first, no more than 0.2 for the second.

LSLV and RWNL cannot be ordered by “one-hybrid fitness for binding NBS DNA” value: no more than 0.2 for the first, no more than 0.2 for the second.

VTWS and VSYL cannot be ordered by “one-hybrid fitness for binding NBS DNA” value: no more than 0.2 for the first, no more than 0.2 for the second.

EATR and TQVS cannot be ordered by “one-hybrid fitness for binding NBS DNA” value: no more than 0.2 for the first, no more than 0.2 for the second.

TVLH and APAC cannot be ordered by “one-hybrid fitness for binding NBS DNA” value: no more than 0.2 for the first, no more than 0.2 for the second.

EESR and NAGR cannot be ordered by “one-hybrid fitness for binding NBS DNA” value: no more than 0.2 for the first, no more than 0.2 for the second.

PPEY and SLVN cannot be ordered by “one-hybrid fitness for binding NBS DNA” value: no more than 0.2 for the first, no more than 0.2 for the second.

QEMR and VEVT cannot be ordered by “one-hybrid fitness for binding NBS DNA” value: no more than 0.2 for the first, no more than 0.2 for the second.

NPTK and RNKM cannot be ordered by “one-hybrid fitness for binding NBS DNA” value: no more than 0.2 for the first, no more than 0.2 for the second.

MALE and YPRL cannot be ordered by “one-hybrid fitness for binding NBS DNA” value: no more than 0.2 for the first, no more than 0.2 for the second.

LNKG and MKIS cannot be ordered by “one-hybrid fitness for binding NBS DNA” value: no more than 0.2 for the first, no more than 0.2 for the second.

SEDT and PDIS cannot be ordered by “one-hybrid fitness for binding NBS DNA” value: no more than 0.2 for the first, no more than 0.2 for the second.

RWVG and PMHV cannot be ordered by “one-hybrid fitness for binding NBS DNA” value: no more than 0.2 for the first, no more than 0.2 for the second.

PAYS and DVLW cannot be ordered by “one-hybrid fitness for binding NBS DNA” value: no more than 0.2 for the first, no more than 0.2 for the second.

Compared with QRKD, VHWV is lower in “one-hybrid fitness for binding NBS DNA” value: 0.377 for the first, no more than 0.2 for the second.

REGN and LTGE cannot be ordered by “one-hybrid fitness for binding NBS DNA” value: no more than 0.2 for the first, no more than 0.2 for the second.

YICC and DPNL cannot be ordered by “one-hybrid fitness for binding NBS DNA” value: no more than 0.2 for the first, no more than 0.2 for the second.

DASC and HVRT cannot be ordered by “one-hybrid fitness for binding NBS DNA” value: no more than 0.2 for the first, no more than 0.2 for the second.

GIAW and EALF cannot be ordered by “one-hybrid fitness for binding NBS DNA” value: no more than 0.2 for the first, no more than 0.2 for the second.

GQIG and HHWS cannot be ordered by “one-hybrid fitness for binding NBS DNA” value: no more than 0.2 for the first, no more than 0.2 for the second.

QKHI and RAGV cannot be ordered by “one-hybrid fitness for binding NBS DNA” value: no more than 0.2 for the first, no more than 0.2 for the second.

QYTN and PFDP cannot be ordered by “one-hybrid fitness for binding NBS DNA” value: no more than 0.2 for the first, no more than 0.2 for the second.

DRAT and SMPN cannot be ordered by “one-hybrid fitness for binding NBS DNA” value: no more than 0.2 for the first, no more than 0.2 for the second.

MPWI and RQNW cannot be ordered by “one-hybrid fitness for binding NBS DNA” value: no more than 0.2 for the first, no more than 0.2 for the second.

WKND and NLAY cannot be ordered by “one-hybrid fitness for binding NBS DNA” value: no more than 0.2 for the first, no more than 0.2 for the second.

LGTL and SPAI cannot be ordered by “one-hybrid fitness for binding NBS DNA” value: no more than 0.2 for the first, no more than 0.2 for the second.

GVTR and KVST cannot be ordered by “one-hybrid fitness for binding NBS DNA” value: no more than 0.2 for the first, no more than 0.2 for the second.

VCWT and HNWR cannot be ordered by “one-hybrid fitness for binding NBS DNA” value: no more than 0.2 for the first, no more than 0.2 for the second.

AIVG and QLCY cannot be ordered by “one-hybrid fitness for binding NBS DNA” value: no more than 0.2 for the first, no more than 0.2 for the second.

QIPQ and RAFP cannot be ordered by “one-hybrid fitness for binding NBS DNA” value: no more than 0.2 for the first, no more than 0.2 for the second.

KRDW and TKFN cannot be ordered by “one-hybrid fitness for binding NBS DNA” value: no more than 0.2 for the first, no more than 0.2 for the second.

ANAG and QHQW cannot be ordered by “one-hybrid fitness for binding NBS DNA” value: no more than 0.2 for the first, no more than 0.2 for the second.

EMKT and KLST cannot be ordered by “one-hybrid fitness for binding NBS DNA” value: no more than 0.2 for the first, no more than 0.2 for the second.

PPLS and TMAS cannot be ordered by “one-hybrid fitness for binding NBS DNA” value: no more than 0.2 for the first, no more than 0.2 for the second.

TSKY and HCGS cannot be ordered by “one-hybrid fitness for binding NBS DNA” value: no more than 0.2 for the first, no more than 0.2 for the second.

SHNE and WLLS cannot be ordered by “one-hybrid fitness for binding NBS DNA” value: no more than 0.2 for the first, no more than 0.2 for the second.

Going from NDSN to QKDS, the “one-hybrid fitness for binding NBS DNA” value rises from no more than 0.2 to 0.332.

VSNM and DWMG cannot be ordered by “one-hybrid fitness for binding NBS DNA” value: no more than 0.2 for the first, no more than 0.2 for the second.

PIMG and EYHK cannot be ordered by “one-hybrid fitness for binding NBS DNA” value: no more than 0.2 for the first, no more than 0.2 for the second.

FHTW and AQAM cannot be ordered by “one-hybrid fitness for binding NBS DNA” value: no more than 0.2 for the first, no more than 0.2 for the second.

GRAP and AGAV cannot be ordered by “one-hybrid fitness for binding NBS DNA” value: no more than 0.2 for the first, no more than 0.2 for the second.

First: VYWR
Second: RQTT
The “one-hybrid fitness for binding NBS DNA” value of the first is lower: no more than 0.2 for the first, 0.487 for the second.

ANNV and VERG cannot be ordered by “one-hybrid fitness for binding NBS DNA” value: no more than 0.2 for the first, no more than 0.2 for the second.

KNTD and IVKY cannot be ordered by “one-hybrid fitness for binding NBS DNA” value: no more than 0.2 for the first, no more than 0.2 for the second.

NADF and AFPG cannot be ordered by “one-hybrid fitness for binding NBS DNA” value: no more than 0.2 for the first, no more than 0.2 for the second.

GDDG and QNVE cannot be ordered by “one-hybrid fitness for binding NBS DNA” value: no more than 0.2 for the first, no more than 0.2 for the second.

VQLG and LQTC cannot be ordered by “one-hybrid fitness for binding NBS DNA” value: no more than 0.2 for the first, no more than 0.2 for the second.

VKNE and THGS cannot be ordered by “one-hybrid fitness for binding NBS DNA” value: no more than 0.2 for the first, no more than 0.2 for the second.

LERR and RQHM cannot be ordered by “one-hybrid fitness for binding NBS DNA” value: no more than 0.2 for the first, no more than 0.2 for the second.

TSVD and PFNG cannot be ordered by “one-hybrid fitness for binding NBS DNA” value: no more than 0.2 for the first, no more than 0.2 for the second.

Going from IRNT to PFRF, the “one-hybrid fitness for binding NBS DNA” value falls from 0.451 to no more than 0.2.

KGVG and HQNR cannot be ordered by “one-hybrid fitness for binding NBS DNA” value: no more than 0.2 for the first, no more than 0.2 for the second.

PTIL and PYNT cannot be ordered by “one-hybrid fitness for binding NBS DNA” value: no more than 0.2 for the first, no more than 0.2 for the second.

For EGCR, the “one-hybrid fitness for binding NBS DNA” value was no more than 0.2.
